# Measurements from PubChem BioAssay AID651820 (National Center for Advancing Translational Sciences (NCATS), 2012).
# Where “and” joins values, the source holds several entries; their conditions need not be identical. Equal entries are not always repeated. The campaign covered roughly 340,000 compounds. About 12,000 (3.5%) were called active. This list was built around the results that the source calls inconclusive (neither active nor inactive); the mix of calls is not that of the screen. The call rests on the fitted dose curve; in most records, active means well fitted inhibition curve with a large enough effect; inconclusive means small, poorly fitted or top-dose-only effect, or another doubt; inactive means no such curve, though single readings can be large or run the other way. Where the call is inconclusive, the potency comes from a doubtful curve fit.
# Experiment: qHTS Assay for Inhibitors of Hepatitis C Virus (HCV)
# Conditions: Huh7.5.1 HCVcc-Cre (HCVcc is cell-culture hepatitis C virus) infection, luciferase reporter, 44 h; series mostly up to 41.8 µM
# Text: Hepatitis C virus (HCV) infects about 200 million people in the world. Many infected people progress to chronic liver disease including cirrhosis with a risk of developing liver cancer. To date, there is no effective vaccine for hepatitis C. Current therapy based on interferon is only effective in about half of the patients and is associated with significant adverse effects. The fraction of people with HCV who can complete a successful treatment is estimated to be no more than 10 percent. Recent development of direct-acting antivirals against HCV, such as protease and polymerase inhibitors, is promising but still requires combination with peginterferon and ribavirin for maximal efficacy. In addition, these agents are associated with high rate of resistance and many have significant side effects. Due to the lack of a culture system for infectious HCV, the search for new HCV drugs has been greatly hampered. […] High-throughput screening (HTS) with an infectious HCV system would cover the complete spectrum of potentially druggable targets in all stages of HCV lifecycle, and would have more biological relevance than other cell-based assays. Moreover, targeting several key processes in the viral life cycle may not only increase antiviral efficacy; more importantly, it may also reduce the capacity of the virus to develop resistance to the compound. The goal of this project is to identify novel HCV inhibitors as new therapies for hepatitis C, using a highly sensitive and specific assay platform which is based on a HCV infectious cell culture system established in the laboratory and adapted for high-throughput HCV drug screen. NIH Chemical Genomics Center [NCGC] NIH Molecular Libraries Probe Centers Network [MLPCN] MLPCN Grant: MH095511 Assay Submitter (PI): Jake Liang, NIDDK
# The assay will start with plating 1,000 cells/well in 3 µL volume and culture for 4 h. Then 23 nL of compounds from the library collection will be added to each well, followed by adding 2.5 µL of HCVcc-Cre virus (~ 0.5 moi) and further cultured for 44 h before the luciferase assay. A volume of 4.5 µL luciferase substrates will be added to each well and the plates will be incubated at room temperature for 15 min. and then read for 15 sec. for the luciferase activity
# Tags describe the fitted curve by direction and shape.
row,Compound,Potency
1,O=C(CCn1c(=O)[nH]c2ccsc2c1=O)N1CCN(c2ccc([N+](=O)[O-])cc2)CC1,"inconclusive: 11.2 µM [inhibitor, partial curve]"
2,Cc1ccc(NC(=O)C(NC2CCCc3ccccc32)c2ccccc2)c([N+](=O)[O-])c1 (stereo not given),"inconclusive: 10 µM [inhibitor, partial curve]"
3,COc1cccc(N=CC2=C(O)CC(C)(C)CC2=O)c1,inactive
4,Cc1csc2c(N3CCN(C(=O)Nc4ccccc4)CC3)ncnc12,"inconclusive: 15.8 µM [inhibitor, single point]"
5,Cc1cc(C)cc(N2C(=O)CC(N3CCOCC3)C2=O)c1 (stereo not given),inactive
6,CC(=O)c1cccc(NC(=O)c2ccc(NS(C)(=O)=O)cc2)c1,"inconclusive: 10 µM [inhibitor, partial curve]"
7,COc1ccc(CCNC(=O)CSc2nn(-c3ccccc3)c(=S)s2)cc1OC,"inconclusive: 35.5 µM [inhibitor, single point]"
8,Cc1ccccc1-c1cccc([C@@H]2C[C@H]3CN(Cc4cccnc4)C(=O)[C@]34CCCN24)c1,"inconclusive: 11.2 µM [inhibitor, single point]"
9,O=C(NCCCN1CCCC1=O)Nc1ccc(Cl)cc1,inactive
10,Cc1cc(=O)oc2cc(NC(=O)C3CCCC3)ccc12,"inconclusive: 12.6 µM [inhibitor, single point]"
11,CCOCCCNC(=O)C(NC(=O)c1cnccn1)c1ccc(C)cc1 (stereo not given),"inconclusive: 5.62 µM [inhibitor, single point]"
12,Cc1nn(-c2ccccc2)c(N2CCCC2)c1/C=N/NC(=O)c1cc(-c2ccccn2)nc2ccccc12,active: 3.98 µM
13,O=C(Nc1ccc(S(=O)(=O)N2CCN(c3ccccc3)CC2)cc1)c1cccs1,"inconclusive: 3.55 µM [inhibitor, single point]"
14,C=CCn1c(SCC(=O)N2CC(=O)Nc3ccccc32)nc2scc(-c3cccs3)c2c1=O,"inconclusive: 22.4 µM [inhibitor, single point] and inconclusive: 31.6 µM [inhibitor, single point]"
15,Cc1cccc(N(CC(=O)NCCSCc2ccco2)S(=O)(=O)c2ccccc2)c1,"inconclusive: 31.6 µM [inhibitor, single point]"
16,Cc1cc(Cl)c(C)c(S(=O)(=O)N2CCN(C(=O)C3CCCO3)CC2)c1Cl (stereo not given),"inconclusive: 5.62 µM [inhibitor, single point]"
17,Cc1ccc(NC(=S)N(CCN2CCCCC2)Cc2ccco2)cc1Cl,inactive
18,Cc1cccc(N/N=C(\C(N)=O)C2=NC(C)(C)Cc3ccccc32)c1,active: 11.2 µM
19,COc1cccc(OC)c1C(=O)Nc1cccc(-n2cnnn2)c1,inactive
20,O=C(Cc1ccc(NC(=O)C2CCCN(C(=O)C3CCC3)C2)cc1)Nc1cccc(C(=O)N2CCCC2)c1 (stereo not given),"inconclusive: 4.47 µM [inhibitor, full curve, poor fit]"
21,O=C(CNC(=O)c1ccc(Br)o1)NCc1ccc(Cl)cc1Cl,inactive
22,Cc1nnc(N2CCCC(C(=O)NCc3ccc(OC(C)C)cc3)C2)c2nn(-c3ccccc3)c(C)c12 (stereo not given),"inconclusive: 31.6 µM [inhibitor, single point]"
23,CCCCOc1ccc(/C=C/C(=O)NC2=Nc3ccccc3NC(C)=C2C(=O)OCC)cc1OC,"inconclusive: 7.94 µM [inhibitor, partial curve, poor fit]"
24,NC(=O)c1nsc(C(=O)N(c2ccc3c(c2)OCCO3)C(C(=O)NCC2CCCO2)c2ccc(F)cc2)c1N (stereo not given),"inconclusive: 8.91 µM [inhibitor, partial curve]"

row,Compound,Potency
1,CCOc1ccccc1NC(=S)NC(=O)c1ccco1,"inconclusive: 11.2 µM [inhibitor, partial curve]"
2,O=c1oc2ccccc2c(O)c1Sc1ccc(Cl)cc1,inactive
3,CC(C)(C)C(=O)CSc1ccc(S(=O)(=O)N2CCCC2)cn1,inactive
4,O=C1CC(N2CCN(Cc3ccc4c(c3)OCO4)CC2)C(=O)N1CCc1ccccc1 (stereo not given),"inconclusive: 11.2 µM [inhibitor, partial curve]"
5,O=C(Nc1cccc(C(=O)N2CCCCC2)c1)c1ccc(Cl)cc1,"inconclusive: 7.08 µM [inhibitor, partial curve]"
6,COc1cc(C(=O)Nc2c(C)cc(C)cc2C)c([N+](=O)[O-])cc1OC,"inconclusive: 31.6 µM [inhibitor, single point]"
7,CCN(CC)S(=O)(=O)c1ccc(C)c(NC(=O)CNCc2ccccc2OC)c1,"inconclusive: 10 µM [inhibitor, partial curve]"
8,O=C(c1ccc(F)cc1)C1CCN(C(=O)Nc2ccccc2Cl)CC1,inactive
9,COc1ccc(O)c(/C=N/NC(=O)CCC(=O)Nc2ccc(C)cc2)c1,"inconclusive: 22.4 µM [inhibitor, single point]"
10,COc1ccc(C(=O)N/N=C/c2ccc(OC)c(CN3CCc4cc(OC)c(OC)cc4C3C)c2)cc1 (stereo not given),"inconclusive: 3.98 µM [inhibitor, partial curve]"
11,O=[N+]([O-])c1ccc(Nc2ccc(F)cc2)nc1,inactive
12,CC(C)Oc1ccc(C(=O)OC(C)C(=O)NC2CCCCC2C)cc1 (stereo not given),"inconclusive: 3.55 µM [inhibitor, single point]"
13,Cn1nc(C(=O)Nc2ccc(S(=O)(=O)N3CCOCC3)cc2)c2ccccc2c1=O,inactive
14,C=CCn1c(SCCC)nc2sc3c(c2c1=O)CCc1ccccc1-3,"inconclusive: 3.55 µM [inhibitor, single point]"
15,COc1ccc(Cl)cc1NC(=O)Nc1ccccc1C(N)=O,inactive
16,O=C(CCN1CCN(c2ccccc2)CC1)N/N=C/c1ccc([N+](=O)[O-])o1,"inconclusive: 31.6 µM [inhibitor, single point]"
17,CC1Cc2cc(-c3csc(N)n3)ccc2O1 (stereo not given),inactive
18,COc1cccc(-c2nc(CS(=O)(=O)CC(=O)NC3CCCC3)c(C)o2)c1,"inconclusive: 31.6 µM [inhibitor, single point]"
19,Cc1cc(-n2c(C)cc(C(=O)CN3C(=O)NC4(CCCC4)C3=O)c2C)no1,inactive
20,O=C(/C=C/c1cccnc1)c1ccccc1O,inactive
21,O=C(COc1ccc(S(=O)(=O)Nc2ccccc2)cc1)NCc1cccnc1,inactive
22,CCCCn1nc2cc(C(=O)NCC34CC5CC(CC(C5)C3)C4)ccc2c1OCC,"inconclusive: 11.2 µM [inhibitor, single point]"
23,O=C1C(Cc2ccc(Br)cc2)SC(=Nc2ccccc2)N1c1ccccc1 (stereo not given),"inconclusive: 28.2 µM [inhibitor, single point]"
24,Cc1ccc(/C=N/NC(=O)c2ccc(-n3cnnn3)cc2)cc1,"inconclusive: 1.78 µM [inhibitor, full curve, poor fit]"

row,Compound,Potency
1,O=[N+]([O-])c1ccc(S(=O)(=O)Nc2nc3ccccc3nc2Nc2ccccc2)cc1,"inconclusive: 10 µM [inhibitor, partial curve]"
2,Cc1ccccc1NC(=O)NCC1CCN(C(=O)OC(C)(C)C)CC1,inactive
3,COc1cc2nc(N3CCNCC3)nc(N)c2cc1OC,active: 22.4 µM
4,COc1ccc(Cn2c(O)c(/C=N/NC(=O)c3ccccc3)c(=O)[nH]c2=O)cc1,inactive
5,C[C@@H](C(=O)NCc1ccccc1)[C@H]1C[C@]1(C)[C@H](NC(=O)OCc1ccccc1)c1ccccc1,"inconclusive: 14.1 µM [inhibitor, single point]"
6,CCCCn1nc2cc(C(=O)NCc3cc(C(F)(F)F)cc(C(F)(F)F)c3)ccc2c1OC,"inconclusive: 0.562 µM [inhibitor, full curve]"
7,Cc1ccc(N(CC(O)CN(C)C)S(=O)(=O)c2ccccc2)cc1 (stereo not given),inactive
8,COC(=O)c1c(C)c2c(C)cc3ccccn3c-2c1C(=O)OC,active: 10 µM
9,CCOC(=O)CC1C(=O)NCCN1c1nc2ccc(C)cn2c(=O)c1/C=C1\SC(=S)N(CC(C)C)C1=O (stereo not given),"inconclusive: 5.62 µM [inhibitor, single point]"
10,Cc1ccc(-c2ccc(CO)o2)cc1N,"inconclusive: 31.6 µM [inhibitor, single point]"
11,CSc1ccccc1NC(=O)CN(C)C(C)C(=O)Nc1ccc(C#N)cc1 (stereo not given),"inconclusive: 7.08 µM [inhibitor, partial curve]"
12,COc1cc(C(=O)NC(c2ccccc2)c2ccccc2)cc(OC)c1C,inactive
13,CCCCn1c(=O)c(C(=O)Nc2ccsc2C(=O)OC)c(O)c2ccccc21,"inconclusive: 14.1 µM [inhibitor, partial curve]"
14,O=C(CCNc1ccc(Cc2ccncc2)cc1)c1ccc([N+](=O)[O-])cc1,"inconclusive: 11.2 µM [inhibitor, single point]"
15,O=C(O)c1ccccc1C(=O)c1ccc(N2CCCC2)c([N+](=O)[O-])c1,inactive
16,Cc1cc(C)c(C(=O)OCCNC(=O)c2cccnc2)cc1C,active: 8.91 µM
17,CN(Cc1cn(-c2ccccc2)nc1-c1cc2ccccc2o1)C(=O)CCC(=O)O,"inconclusive: 3.16 µM [inhibitor, single point]"
18,COc1ccc(C2=NN(C(=O)c3cccs3)C(c3ccccc3OC)C2)cc1OC (stereo not given),active: 10 µM
19,Cn1c(=O)[nH]c(=O)c2c1nc(Br)n2Cc1cccc(Br)c1,"inconclusive: 31.6 µM [inhibitor, single point]"
20,O=C(Cc1ccc(-c2ccccc2)cc1)NNC(=S)NCc1ccco1,active: 11.2 µM
21,Nc1nonc1-c1noc(CCCCCN2C(=O)c3ccccc3C2=O)n1,inactive
22,Oc1cccc(/C=N/NC(=S)NCCN2CCOCC2)c1O,"inconclusive: 10 µM [inhibitor, partial curve]"
